Measured values as given in PubChem BioAssay AID652104 (National Center for Advancing Translational Sciences (NCATS), 2013).
The whole screen tested about 410,000 compounds, of which about 7,200 (1.8%) were called active. This list was built around the results that the source calls inconclusive (neither active nor inactive); the mix of calls is not that of the screen. The call rests on the fitted dose curve; in most records, active means well fitted activation curve with a large enough effect; inconclusive means small, poorly fitted or top-dose-only effect, or another doubt; inactive means no such curve, though single readings can be large or run the other way. No potency is given beside an inconclusive call; the fits are too rough.
Potency means the concentration at half of the fitted maximal effect; tags describe the fitted curve by direction and shape.

Assay: qHTS of TDP-43 Inhibitors; further: nearly all actives have a fitted effect of over 50% in size; on growth rescue (activation): % of control where 0% means no effect
Conditions: TDP-43 expressing yeast growth rescue, BacTiter-Glo, 24 h; growth rescue (activation): at 46.1 µM (top of the series) unless noted
How it was run: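 Readout is BacTiter-Glo luminescence of cell growth, so inhibitors register as activators. TDP-43-expressing yeast at OD600=0.02 in galactose medium, after raffinose pregrowth to mid-log, were incubated with compound for 24 hr at 30 deg C.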
In the case of `CCOC1=C/C(=C/c2c(N)n3nc(-c4ccccc4)sc3nc2=O)C=CC1=O`, the Potency is reported as “inactive”. In the case of `O=C(N/N=C/c1cccc2nccnc12)c1ccccc1O`, the Potency is reported as “inactive”. With `COc1ccccc1Cn1c(C)c(C(=O)NCc2ccco2)sc1=O` the Potency was inconclusive [activator, partial curve]. With `CCOC(=O)c1c(C)[nH]c(C)c1C(=O)COC(=O)c1ccc(Cl)c(S(N)(=O)=O)c1` the Potency was inconclusive [activator, partial curve]. In the case of `O=C(Nc1ccc2c(c1)OCCO2)C(C1CC1)n1c(=O)c(-c2ccco2)nc2ccccc21` (configuration not stated), the Potency is reported as inconclusive [activator, full curve, poor fit]. For `CCCOc1ccc(F)cc1-c1cc(C(=O)Nc2ccc(OC)c(OC)c2)[nH]n1`, the Potency was inconclusive [activator, single point]. For `COc1cccc(C(=O)NCCS(=O)(=O)N2CCN(c3ccccc3)CC2)c1OC`, the Potency was inconclusive [activator, partial curve]. With `C=CCN(CC=C)C(=O)Cc1ccc(F)cc1` the Potency was “inactive”. In the case of `Nc1nc2ccccc2n1/N=C/c1ccc([N+](=O)[O-])s1`, the Potency is reported as “inactive”. For `COc1ccc2c(c1)OC[C@H]1[C@H]2N2C(=O)c3ccc(F)cc3NC(=O)[C@@]2(C)[C@H]1c1ccccc1`, the Potency was inconclusive [activator, single point]. With `O=C(NCc1nnnn1-c1ccccc1)c1ccc2ccccc2c1` the Potency was inconclusive [activator, partial curve]. In the case of `O=C(c1ccc2ccccc2c1O)N1CCCCC1`, the Potency is reported as inconclusive [activator, partial curve]. With `O=C(c1ccc(Cl)cc1)C1CCN(C(=O)c2ccc(F)cc2)CC1` the Potency was inconclusive [activator, partial curve]. In the case of `CCOC(=O)NC(=S)Nc1cccc(NC(=S)NC(=O)OCC)c1`, the Potency is reported as “inactive”. For `CCCCn1nnnc1C(c1cc2ccccc2o1)N1CCOCC1` (configuration not stated), the Potency was inconclusive [activator, partial curve]. In the case of `ONC(=Nc1ccc(Cl)cc1)c1ccc(Cl)cc1`, the Potency is reported as inconclusive [activator, single point]. In the case of `c1ccc(-n2nnnc2-c2cnc(-c3ccncc3)nc2-c2cccs2)cc1`, the Potency is reported as inconclusive [activator, single point]. For `CNS(=O)(=O)c1cn(CC(=O)N2CCN(c3ccc(Cl)cc3)CC2)cc1S(=O)(=O)NC`, the Potency was “inactive”. For `O=c1ccc2cc(S(=O)(=O)NCc3ccc(Cl)cc3)ccc2[nH]1`, the Potency was inconclusive [activator, single point]. With `COc1ccc(OCCSc2nnc3sc4ccccc4n23)cc1` the Potency was active: 15.8 µM. With `CCCc1c(-c2ccc(Cl)cc2)ncn1CCc1ccccc1OC` the Potency was inconclusive [activator, full curve]. With `CCC(C)(C)c1ccc(OCCCC[n+]2ccc(C)cc2)c(C(C)(C)CC)c1` the Potency was inconclusive [activator, single point]. With `O=C(COC(=O)c1c(F)cccc1F)NCc1ccc2c(c1)OCO2` the Potency was inconclusive [activator, partial curve]. In the case of `Cc1cc(C)cc(OC2CCCCC2NS(=O)(=O)c2ccccc2)c1` (configuration not stated), the Potency is reported as inconclusive [activator, partial curve]. In the case of `CSc1ccc(CNC(=O)c2ccc3c(c2)N(C)C(=O)C2CCCCN32)cc1` (configuration not stated), the Potency is reported as inconclusive [activator, partial curve]. In the case of `CC(C)COc1ccc(C(=O)Nc2scc(-c3ccc(Br)cc3)c2C(=O)OC(C)C)cc1`, the Potency is reported as “inactive”. With `O=C(Nc1nnc(-c2ccc(Cl)cc2)o1)c1nc2ccccc2s1` the Potency was inconclusive [activator, single point]. With `COc1ccc(CN2C(=S)NC(C)(C)CC2(C)O)cc1` (configuration not stated) the Potency was inconclusive [activator, partial curve]. For `Cc1ccc(S(=O)(=O)N2CCN(C(=O)COC(=O)COc3ccc(Cl)cc3)CC2)c(C)c1`, the Potency was “inactive”. For `Cc1cscc1-c1ccc(C(=O)Nc2c(C)cccc2C)o1`, the Potency was active: 14.1 µM. For `COc1ccc(NC(=O)/C=C/c2ccc(OC)c(OC)c2)cn1`, the Potency was inconclusive [activator, single point]. In the case of `COC(=O)[C@@]12CCCN1[C@H](c1ccc(-c3cccc(Cl)c3)c(OC)c1)[C@H]1C(=O)N(C)C(=O)[C@H]12`, the Potency is reported as “inactive”. With `CC(NC(=O)COC(=O)C1=NN(c2ccccc2)C(=O)CC1)c1ccccc1` (configuration not stated) the Potency was “inactive”. In the case of `O=C(Sc1nnc(-c2ccccc2)o1)N1c2ccccc2Sc2ccccc21`, the Potency is reported as active: 11.2 µM. With `O=c1oc(-c2ccccc2)cc(Cl)c1Cl` the growth rescue (activation) was inconclusive: -90.1% [activator]. For `O=C(CSc1nccn1Cc1ccc(F)cc1)NCc1ccccc1`, the growth rescue (activation) was inconclusive: 31.1% [activator]. In the case of `CCc1cccc(N2C(=O)CSC23C(=O)N(Cc2ccccc2F)c2ccccc23)c1` (configuration not stated), the Potency is reported as inconclusive [activator, single point]. For `COC(=O)c1ccc(Sc2ccccc2NS(=O)(=O)c2ccc(C)cc2)nc1`, the Potency was inconclusive [activator, single point]. With `COc1ccc(-c2cc(=O)oc3c(O)c(O)ccc23)cc1` the Potency was inconclusive [activator, single point]. With `COc1ccc(-c2cn3nc(SCC(=O)Nc4ccccc4F)ccc3n2)cc1` the growth rescue (activation) was inactive: 0% [at 9.22 µM]. In the case of `N#CCSc1nnc(-c2sc3ccccc3c2Cl)o1`, the Potency is reported as inconclusive [activator, partial curve]. With `CCSc1nc2sccc2c(=O)n1-c1ccccc1` the Potency was inconclusive [activator, single point]. With `Cc1cc(C)c(NC(=O)COCc2cc(-c3cccs3)on2)c(C)c1` the Potency was inconclusive [activator, single point]. In the case of `N#C/C(=C\c1ccc(OC(F)F)cc1)C(=O)N1CCCCC1`, the Potency is reported as inconclusive [activator, single point]. For `CC1(C)CC(NS(=O)(=O)OCC(Cl)(Cl)Cl)c2cc(C#N)ccc2O1` (configuration not stated), the Potency was inconclusive [activator, partial curve]. In the case of `COc1cccc(NC(=O)c2ccccc2-c2nc(-c3cccc(C)c3)no2)c1`, the Potency is reported as inconclusive [activator, single point]. In the case of `CN(C)CCOC1c2ccccc2CCc2ccc3ccccc3c21` (configuration not stated), the Potency is reported as active: 15.8 µM. For `Cc1cccc(CN2C(=O)c3ccccc3Sc3ccc(C(=O)O)cc32)c1`, the Potency was inconclusive [activator, single point]. In the case of `COc1ccc(CCNC(=O)c2cnc3ccccc3n2)cc1`, the Potency is reported as inconclusive [activator, partial curve]. In the case of `COC(=O)/C=C(\Oc1ccccc1)C1(O)CCCCC1`, the Potency is reported as inconclusive [activator, partial curve]. In the case of `Cc1cc(C)c2ccc(/C=N/O)nc2c1O`, the Potency is reported as “inactive”. In the case of `CC1CCN(c2oc(-c3ccco3)nc2S(=O)(=O)c2ccccc2)CC1`, the Potency is reported as active: 15.8 µM. With `Cc1ccc2c(c1)-c1cc(C)nn1C(c1sccc1C)N2` (configuration not stated) the Potency was inconclusive [activator, single point]. In the case of `COc1ccc(N2CCN(C(=O)Cc3coc4cc(C)ccc34)CC2)cc1`, the Potency is reported as inconclusive [activator, partial curve]. With `CCc1cc(=O)oc2c3c(c(Cl)cc12)OCN(Cc1cccc(OC)c1)C3` the Potency was “inactive”. In the case of `Nc1cccnc1Sc1ccc(Cl)cc1`, the Potency is reported as inconclusive [activator, partial curve]. In the case of `CCOC(=O)c1sc(NC(=O)CSc2nnc(C)s2)c(C(=O)OCC)c1C`, the Potency is reported as inconclusive [activator, full curve, poor fit]. With `O=C(Nc1ccc(Cl)cc1)C1Cc2c(-c3ccccc3)ccnc2O1` (configuration not stated) the Potency was active: 35.5 µM. For `CCOC(=O)C1=CN(c2cccc(F)c2)C=C(C(=O)OCC)C1c1cc(OC)c(O)c([N+](=O)[O-])c1`, the Potency was inconclusive [activator, single point]. In the case of `CC(=O)N1Cc2ccccc2C(C)CC12CCCC2` (configuration not stated), the Potency is reported as inconclusive [activator, partial curve]. For `Cc1cc2ccccc2n1CCNC(=O)c1cccc(Br)c1`, the Potency was inconclusive [activator, partial curve]. In the case of `O=C(O)c1cncc(SCc2ccccc2)n1`, the Potency is reported as “inactive”. With `COc1c([N+](=O)[O-])cc(C(=O)NNC(=O)c2ccc(C)cc2)cc1[N+](=O)[O-]` the Potency was “inactive”. In the case of `CC(=O)c1ccc(Oc2ccc(C(C)=O)cc2)cc1`, the Potency is reported as active: 22.4 µM. With `COc1ccc(NS(=O)(=O)c2cc(NC(=O)CCSc3ccccc3)ccc2OC)cc1` the Potency was inconclusive [activator, full curve, poor fit]. With `CC(CNC(=O)COc1ccc2c(c1)OCO2)c1ccccc1` (configuration not stated) the Potency was inconclusive [activator, partial curve]. With `CN1OC2C(=O)N(c3ccccc3)C(=O)C2C1c1ccc(F)cc1` (configuration not stated) the Potency was “inactive”. For `Cc1c(Cl)cccc1NC(=O)c1cnc2sc(N3CCOCC3)nn2c1=O`, the Potency was “inactive”. In the case of `COc1cccc(C(C)(O)c2nc(-c3cccc(C(=O)O)c3)cs2)c1` (configuration not stated), the Potency is reported as “inactive”. For `Cc1ccc(Sc2ncccc2/C=N/O)cc1`, the Potency was inconclusive [activator, single point]. With `Cc1ccc(COc2ccc(C)nc2[N+](=O)[O-])cc1` the Potency was inconclusive [activator, partial curve]. In the case of `COc1ccc(-c2noc(N3CCC(C(=O)Nc4cc(OC)ccc4OC)CC3)n2)cc1`, the Potency is reported as inconclusive [activator, partial curve].
